Laboratory results reported in PubChem BioAssay AID1745853 (National Center for Advancing Translational Sciences (NCATS), 2022).
The other results are listed elsewhere or left out. These are further read-outs of the screen, such as a control signal, another cell line or another target. No call is given for them.

Legend:
Experiment in all cases: Primary Screen for Target Class Profiling of Small Molecule Inhibitors of Methyltransferases
[1] = target: Glycine N-methyltransferase (Homo sapiens) (UniProt Q14749); conditions: purified enzyme, MTase-Glo SAH luminescence; measured here: GNMT inhibition; at 40 µM; stronger effect = lower value
Outline: (§1)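 Each enzyme was reacted with SAM and its substrate, with compounds tested once at 40 uM; SAH formed was read by MTase-Glo luminescence.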

[2] = target: Guanidinoacetate N-methyltransferase (Homo sapiens) (UniProt Q14353); conditions: purified enzyme, MTase-Glo SAH luminescence; measured here: GAMT inhibition; at 40 µM; stronger effect = lower value
Outline: as §1

[3] = target: Histamine N-methyltransferase (Homo sapiens) (UniProt P50135); conditions: purified enzyme, MTase-Glo SAH luminescence; measured here: HNMT inhibition; at 40 µM; stronger effect = lower value
Outline: as §1

[4] = target: Nicotinamide N-methyltransferase (Homo sapiens) (UniProt P40261); conditions: purified enzyme, MTase-Glo SAH luminescence; measured here: NNMT inhibition; at 40 µM; stronger effect = lower value
Outline: as §1

[5] = target: Phenylethanolamine N-methyltransferase (Homo sapiens) (UniProt P11086); conditions: purified enzyme, MTase-Glo SAH luminescence; measured here: PNMT inhibition; at 40 µM; stronger effect = lower value
Outline: as §1
% is set by controls: 0 for no effect and ±100 for the full control effect.

COc1ccccc1CNC(=O)C1(C)Cn2nc(-c3ccccc3)cc2C(=O)N1Cc1ccccc1F (stereo not drawn) gave an activity change, negative = inhibition [1] of 3.17%, an activity change, negative = inhibition [2] of 4.71% and an activity change, negative = inhibition [3] of 6.38%. For the same compound, the activity change, negative = inhibition [4] was -2.47% and the activity change, negative = inhibition [5] was -0.264%.

COc1ccc(CNC(=O)C(C)n2ccc3cc(S(=O)(=O)N4CCCCC4)ccc32)c(OC)c1 (stereo not drawn) gave an activity change, negative = inhibition [1] of -0.045%, an activity change, negative = inhibition [2] of 0% and an activity change, negative = inhibition [3] of 4.19%. The activity change, negative = inhibition [4] was -5.1% and the activity change, negative = inhibition [5] was 1.45%.

CCC(C)NC(=O)c1ccc2c(=O)n(C)c3nnc(SCC(=O)Nc4cc(F)ccc4F)n3c2c1 (stereo not drawn) gave an activity change, negative = inhibition [1] of -0.451%, an activity change, negative = inhibition [2] of 1.88% and an activity change, negative = inhibition [3] of -1.84%. It also gave an activity change, negative = inhibition [4] of -5.11% and an activity change, negative = inhibition [5] of -3.51%.

Cc1ccc([C@@H]2CC=C(C(=O)O)[C@H](c3ccc(C(C)(C)C)cc3)N2S(=O)(=O)c2ccc(C)cc2)cc1 showed an activity change, negative = inhibition [1] of -18.9%, an activity change, negative = inhibition [2] of -5.6% and an activity change, negative = inhibition [3] of 9.16%. The activity change, negative = inhibition [4] was -41.3% and the activity change, negative = inhibition [5] was -8.76%.

With CC1=NS(=O)(=O)N(C)C=C1C(=O)OCc1nc(-c2cccc(C)c2)no1 the activity change, negative = inhibition [1] was -5.9%, the activity change, negative = inhibition [2] was -2.59% and the activity change, negative = inhibition [3] was -4.02%. The activity change, negative = inhibition [4] was -9.19% and the activity change, negative = inhibition [5] was -4.08%.

In the case of CN(CC(=O)Nc1ccc(Br)cc1F)S(=O)(=O)c1ccc2[nH]c3c(c2c1)CCCC3, the activity change, negative = inhibition [1] is reported as -0.906%, the activity change, negative = inhibition [2] is reported as -2.17% and the activity change, negative = inhibition [3] is reported as -0.257%. For the same compound, the activity change, negative = inhibition [4] was -3.86% and the activity change, negative = inhibition [5] was -0.287%.

Work on Cc1ccccc1Cn1nc2n(Cc3ccccc3)c(=O)c3ccc(C(=O)NC4CCCC4)cc3n2c1=O yielded an activity change, negative = inhibition [1] of 4.25%, an activity change, negative = inhibition [2] of 3.51% and an activity change, negative = inhibition [3] of 0.642%. The activity change, negative = inhibition [4] was 12.2% and the activity change, negative = inhibition [5] was 1.46%.

For CCCN1C(=O)c2c(C(=O)NCc3ccc(OC)cc3)ncn2CC1(C)C(=O)NCc1ccc(C)cc1 (stereo not drawn), the activity change, negative = inhibition [1] was 1.76%, the activity change, negative = inhibition [2] was 0.65% and the activity change, negative = inhibition [3] was 2.87%. For the same compound, the activity change, negative = inhibition [4] was 6.12% and the activity change, negative = inhibition [5] was 6.57%.

Work on N#C/C(=C\c1ccc(-c2cc(Cl)ccc2Cl)o1)C(=O)Nc1cccc2ncccc12 yielded an activity change, negative = inhibition [1] of -24%, an activity change, negative = inhibition [2] of 3.12% and an activity change, negative = inhibition [3] of -4.05%. The activity change, negative = inhibition [4] was -7.8% and the activity change, negative = inhibition [5] was 2.44%.

In the case of COC(=O)C1=COC(O[C@@H]2O[C@H](CO[C@@H]3O[C@H](COC(=O)/C=C\c4ccc(O)cc4)[C@@H](O)[C@H](O)[C@H]3O)[C@@H](O)[C@H](O)[C@H]2O)C2C(CO)=CCC12 (stereo partly drawn), the activity change, negative = inhibition [1] is reported as -1.35%, the activity change, negative = inhibition [2] is reported as -4.14% and the activity change, negative = inhibition [3] is reported as 4.56%. The activity change, negative = inhibition [4] was -11.4% and the activity change, negative = inhibition [5] was -7.68%.

In the case of CC1(C(=O)NCc2cccnc2)CCCc2cnc(Nc3ccccc3F)nc21 (stereo not drawn), the activity change, negative = inhibition [1] is reported as -14.1%, the activity change, negative = inhibition [2] is reported as -8.72% and the activity change, negative = inhibition [3] is reported as -6.45%. It also gave an activity change, negative = inhibition [4] of -20.7% and an activity change, negative = inhibition [5] of -7.02%.

In the case of COC(=O)c1sccc1S(=O)(=O)N1CCN2C(=O)CN(C)C(=O)C2C1 (stereo not drawn), the activity change, negative = inhibition [1] is reported as -0.352%, the activity change, negative = inhibition [2] is reported as -0.049% and the activity change, negative = inhibition [3] is reported as 3.54%. It also gave an activity change, negative = inhibition [4] of 0.057% and an activity change, negative = inhibition [5] of 2.78%.

For CC1(C(=O)NC2CCCC2)Cn2c(nc3ccccc32)C(=O)N1Cc1cccnc1 (stereo not drawn), the activity change, negative = inhibition [1] was 10.7%, the activity change, negative = inhibition [2] was 1.01% and the activity change, negative = inhibition [3] was 9.93%. The activity change, negative = inhibition [4] was 13.8% and the activity change, negative = inhibition [5] was 5.22%.

O=C1Cc2c(-c3cc4ccccc4o3)n[nH]c2CN1Cc1ccccc1 gave an activity change, negative = inhibition [1] of -24.4%, an activity change, negative = inhibition [2] of -16.9% and an activity change, negative = inhibition [3] of -9.15%. For the same compound, the activity change, negative = inhibition [4] was -20.5% and the activity change, negative = inhibition [5] was -15%.

With CSc1cccc(N2C(=O)CSc3c(c4ccccc4n3C)C2C(=O)NCCCOC(C)C)c1 (stereo not drawn) the activity change, negative = inhibition [1] was 1.98%, the activity change, negative = inhibition [2] was 0% and the activity change, negative = inhibition [3] was 8.72%. It also gave an activity change, negative = inhibition [4] of -11.2% and an activity change, negative = inhibition [5] of 0.024%.

O=C(CCCc1ccccc1)Nc1ccc(OC2CCNCC2)nc1 gave an activity change, negative = inhibition [1] of -40.9%, an activity change, negative = inhibition [2] of -17.8% and an activity change, negative = inhibition [3] of -21.2%. The activity change, negative = inhibition [4] was -2.27% and the activity change, negative = inhibition [5] was -36.2%.

Work on Cn1c(=O)oc2ccc(C(=O)N[C@H](C3CCNCC3)C3CC(O)C3)cc21 (stereo partly drawn) yielded an activity change, negative = inhibition [2] of -2.65%, an activity change, negative = inhibition [4] of -8.52% and an activity change, negative = inhibition [5] of 4.9%.

Cc1cnc(CC2CCN(S(=O)(=O)c3ccccc3)CC2)n1Cc1ccc(F)cc1 showed an activity change, negative = inhibition [1] of -7.04%, an activity change, negative = inhibition [2] of -3.68% and an activity change, negative = inhibition [3] of -7.51%. It also gave an activity change, negative = inhibition [4] of -25.5% and an activity change, negative = inhibition [5] of -23.5%.

With O=C(NCc1nn(Cc2ccccc2)c2ccccc12)c1ccccc1C(F)(F)F the activity change, negative = inhibition [1] was 11.4%, the activity change, negative = inhibition [2] was 0.846% and the activity change, negative = inhibition [3] was 9.05%. For the same compound, the activity change, negative = inhibition [4] was 0.138% and the activity change, negative = inhibition [5] was 7.93%.

O=C(CCC[C@@H]1[C@H]2CCCN3CCC[C@@H](CN1Cc1cccnc1)[C@@H]23)N1CCN(C2CCCC2)CC1 was tested, and the activity change, negative = inhibition [1] was -7.73%, the activity change, negative = inhibition [2] was -6.52% and the activity change, negative = inhibition [3] was -26.6%. It also gave an activity change, negative = inhibition [4] of -10.2% and an activity change, negative = inhibition [5] of -0.139%.

Cc1ccc(Cn2c(=O)c3ccccc3n3c(CCC(=O)NCCc4c[nH]c5ccccc45)nnc23)cc1 gave an activity change, negative = inhibition [1] of -6.84%, an activity change, negative = inhibition [2] of 5.5% and an activity change, negative = inhibition [3] of -8.65%. The activity change, negative = inhibition [4] was -3.74% and the activity change, negative = inhibition [5] was -3.81%.

With CCCn1c(=O)c2ccccc2n2c(=O)n(CC(=O)c3ccc(F)cc3)nc12 the activity change, negative = inhibition [1] was 2.98%, the activity change, negative = inhibition [2] was 0% and the activity change, negative = inhibition [3] was 8.83%. For the same compound, the activity change, negative = inhibition [4] was 7.11% and the activity change, negative = inhibition [5] was 6.45%.

In the case of CC(C)C[C@H](NC(=O)[C@H](O)[C@H](N)Cc1ccccc1)C(=O)O, the activity change, negative = inhibition [1] is reported as -4.44%, the activity change, negative = inhibition [2] is reported as 3.91% and the activity change, negative = inhibition [3] is reported as -0.693%. The activity change, negative = inhibition [4] was -3.73% and the activity change, negative = inhibition [5] was 5.34%.

With CCOc1ccccc1CNC(=O)Cn1ccc2cc(S(=O)(=O)N3CCCC3)ccc21 the activity change, negative = inhibition [1] was -0.086%, the activity change, negative = inhibition [2] was 6.8% and the activity change, negative = inhibition [3] was -3.74%. For the same compound, the activity change, negative = inhibition [4] was -5.76% and the activity change, negative = inhibition [5] was 1.48%.

Compound COC(=O)C(CC1(O)c2ccccc2N2C(=O)C(CC(C)C)NC21)n1cnc2ccccc2c1=O (stereo not drawn) has an activity change, negative = inhibition [1] of 6.02%, an activity change, negative = inhibition [2] of 2.65% and an activity change, negative = inhibition [3] of 8.04%. It also gave an activity change, negative = inhibition [4] of -9.05% and an activity change, negative = inhibition [5] of 4.36%.

CCOCCn1c(=O)n(C(CC)C(=O)NC(C)(C)C)c2cc(C(=O)O)cnc21 (stereo not drawn) showed an activity change, negative = inhibition [1] of -3.95%, an activity change, negative = inhibition [2] of -6.6% and an activity change, negative = inhibition [3] of -1.9%. It also gave an activity change, negative = inhibition [4] of -10.6% and an activity change, negative = inhibition [5] of -5.46%.

With CCOC(=O)c1cc2n(n1)CC(C)(C(=O)NC1CCCCC1)N(CCc1cccs1)C2=O (stereo not drawn) the activity change, negative = inhibition [1] was 4.46%, the activity change, negative = inhibition [2] was 2.39% and the activity change, negative = inhibition [3] was 7.44%. The activity change, negative = inhibition [4] was 7.02% and the activity change, negative = inhibition [5] was 3.07%.

Compound CC(C)Cn1c(=O)c2ccccc2n2c(CCC(=O)NCc3ccccc3)nnc12 has an activity change, negative = inhibition [1] of -0.733%, an activity change, negative = inhibition [2] of 0% and an activity change, negative = inhibition [3] of -6.63%. The activity change, negative = inhibition [4] was -6.62% and the activity change, negative = inhibition [5] was -12.3%.

CCc1csc(CNc2cc(C3CC(O)C3)nc(N)n2)n1 (stereo not drawn) gave an activity change, negative = inhibition [1] of -3.03%, an activity change, negative = inhibition [2] of 1.87% and an activity change, negative = inhibition [3] of -22.5%. For the same compound, the activity change, negative = inhibition [4] was 1.72% and the activity change, negative = inhibition [5] was 3.1%.
